Data: PMC6749817
These are yes or no findings as the source states them, for the method shown. For some assays here: In cells and extracts the contact can be indirect. Some entries that bind do so weakly or less than the wild type. For some assays here: Sequences can lack the tags named with a protein.

Tests used:
[1] = target: T1, CNGC12-CT (441D-650*), the C-terminus of CNGC12, in pGBKT7 (Arabidopsis thaliana) (UniProt Q8GWD2); test: two-hybrid; yeast AH109; CNGC12 fragments in pGBKT7, CaMs/CMLs in pGADT7; growth on SD/-Trp/-Leu/-His, 29°C, 2 days; three replicates
T1 sequence: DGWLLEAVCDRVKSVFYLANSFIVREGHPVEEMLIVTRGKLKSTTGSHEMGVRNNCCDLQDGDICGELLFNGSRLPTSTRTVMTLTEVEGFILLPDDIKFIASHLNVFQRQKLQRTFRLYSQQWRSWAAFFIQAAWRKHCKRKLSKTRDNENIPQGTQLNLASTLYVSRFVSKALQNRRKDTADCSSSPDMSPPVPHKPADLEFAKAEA

[2] = target: T2, CNGC12-nVenus (Arabidopsis thaliana) (UniProt Q8GWD2); test: split reporter; BiFC (nVenus/cCFP) in Arabidopsis mesophyll protoplasts, 16-20 h at room temperature, confocal microscopy
T2 sequence: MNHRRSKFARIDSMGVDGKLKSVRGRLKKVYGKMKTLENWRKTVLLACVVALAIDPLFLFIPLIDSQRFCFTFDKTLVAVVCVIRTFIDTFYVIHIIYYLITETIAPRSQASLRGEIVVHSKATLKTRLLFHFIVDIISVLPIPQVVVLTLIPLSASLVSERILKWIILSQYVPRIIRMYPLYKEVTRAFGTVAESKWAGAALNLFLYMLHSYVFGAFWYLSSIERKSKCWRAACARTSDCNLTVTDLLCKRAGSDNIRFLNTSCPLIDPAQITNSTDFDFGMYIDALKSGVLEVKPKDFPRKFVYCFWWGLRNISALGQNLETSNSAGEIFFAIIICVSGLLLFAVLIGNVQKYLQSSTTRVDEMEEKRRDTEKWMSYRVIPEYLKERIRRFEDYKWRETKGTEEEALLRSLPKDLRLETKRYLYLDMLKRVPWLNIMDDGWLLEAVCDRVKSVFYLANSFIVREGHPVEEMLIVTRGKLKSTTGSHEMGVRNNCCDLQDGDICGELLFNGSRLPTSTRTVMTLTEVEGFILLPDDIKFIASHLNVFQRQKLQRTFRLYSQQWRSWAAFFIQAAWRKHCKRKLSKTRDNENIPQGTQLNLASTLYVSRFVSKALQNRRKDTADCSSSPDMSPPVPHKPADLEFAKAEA

[3] = target: T3, CNGC12 550R-650* (the C-terminus of CNGC12 without the first CNBD) in pGBKT7 (Arabidopsis thaliana) (UniProt Q8GWD2); test: two-hybrid; yeast AH109; CNGC12 fragments in pGBKT7, CaMs/CMLs in pGADT7; growth on SD/-Trp/-Leu/-His, 29°C, 2 days; three replicates
T3 sequence: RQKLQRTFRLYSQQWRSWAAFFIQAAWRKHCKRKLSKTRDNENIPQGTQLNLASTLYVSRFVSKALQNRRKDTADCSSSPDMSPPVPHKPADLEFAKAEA

[4] = target: T4, CNGC12 565R-594P (IQ domain) in pGBKT7 (Arabidopsis thaliana) (UniProt Q8GWD2); test: as above
T4 sequence: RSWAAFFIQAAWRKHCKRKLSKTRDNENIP

[5] = target: T5, CNGC12 565R-650* (the C-terminus of CNGC12 without two CNBDs) in pGBKT7 (Arabidopsis thaliana) (UniProt Q8GWD2); test: as above
T5 sequence: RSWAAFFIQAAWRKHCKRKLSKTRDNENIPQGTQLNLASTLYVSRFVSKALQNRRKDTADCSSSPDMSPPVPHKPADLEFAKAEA

[6] = target: GST-CaM1 (Arabidopsis thaliana) (UniProt P0DH95); test: pull-down; purified GST-CaM1 or GST on glutathione agarose beads, mixed with 1 ml cell lysate containing His-tagged CNGC12-CT, 4°C overnight; five washes with PBS; immunoblot with anti-His; only the target purified

Molecule | binding [1] | binding [2] | other results
CaM6 (full open reading frame) in pGADT7 (from UniProt Q03509 1-149) | binds | – | –
CaM1-cCFP (from UniProt P0DH95 1-149) | – | binds | –
CaM1 (full open reading frame) in pGADT7 (from UniProt P0DH95 1-149) | binds | – | binding [3]: binds; binding [4]: binds; binding [5]: binds
His-CNGC12-CT (441D-650*) (domain or fragment, UniProt Q8GWD2 441-649) DGWLLEAVCDRVKSVFYLANSFIVREGHPVEEMLIVTRGKLKSTTGSHEMGVRNNCCDLQDGDICGELLFNGSRLPTSTRTVMTLTEVEGFILLPDDIKFIASHLNVFQRQKLQRTFRLYSQQWRSWAAFFIQAAWRKHCKRKLSKTRDNENIPQGTQLNLASTLYVSRFVSKALQNRRKDTADCSSSPDMSPPVPHKPADLEFAKAEA | – | – | binding [6]: binds
CNGC11-cCFP (protein, UniProt Q9SKD6 1-621) MNLQRRKFVRLDSTGVDGKLKSVRGRLKKVYGKMKTLENWRKTVLLACVVALAIDPLFLFIPLIDSQRFCFTFDKTLVAVVCVIRTFIDTFYVIHIIYYLITETIAPRSQASLRGEIVVHSKATLKTRLLFHFIVDIISVLPIPQVVVLTLIPLSASLVSERILKWIILSQYVPRIIRMYPLYKEVTRAFGTVAESKRVGAALNFFLYMLHSYVCGAFWYLSSIERKSTCWRAACARTSDCNLTVTDLLCKRAGSDNIRFLNTSCPLIDPAQITNSTDFDFGMYIDALKSGVLEVKPKDFPRKFVYCFWWGLRNISALGQNLETSNSAGEIFFAIIICVSGLLLFAVLIGNVQKYLQSSTTRVDEMEEKKRDTEKWMSYREIPEYLKERIRRFEDYKWRRTKGTEEEALLRSLPKDLRLETKRYLFLKLLKKVPLLQAMDDQLLDALCARLKTVHYTEKSYIVREGEPVEDMLFIMRGNLISTTTYGGRTGFFNSVDLIAGDSCGDLLTWALYSLSSQFPISSRTVQALTEVEGFVISADDLKFVATQYRRLHSKQLQHMFRFYSLQWQTWAACFIQAAWKRHCRRKLSKALREEEGKLHNTLQNDDSGGNKLNLGAAIYA | – | no binding | –
